{"source": "PubChem BioAssay AID624170", "about": "(National Center for Advancing Translational Sciences (NCATS), 2012)", "note": "The whole screen tested about 410,000 compounds, of which about 850 (0.21%) were called active. Inconclusive means that the source gave no clear call. Such entries were picked first, then a sample of the others. The call rests on the fitted dose curve; in most records, active means well fitted inhibition curve with a large enough effect; inconclusive means small, poorly fitted or top-dose-only effect, or another doubt; inactive means no such curve, though single readings can be large or run the other way. No potency is given beside an inconclusive call; the fits are too rough. Potency means the concentration at half of the fitted maximal effect; tags describe the fitted curve by direction and shape."}
{"molecular_target": "Glutaminase kidney isoform, mitochondrial (Homo sapiens) (UniProt O94925)", "sequence (O94925 whole entry, looked up, canonical isoform)": "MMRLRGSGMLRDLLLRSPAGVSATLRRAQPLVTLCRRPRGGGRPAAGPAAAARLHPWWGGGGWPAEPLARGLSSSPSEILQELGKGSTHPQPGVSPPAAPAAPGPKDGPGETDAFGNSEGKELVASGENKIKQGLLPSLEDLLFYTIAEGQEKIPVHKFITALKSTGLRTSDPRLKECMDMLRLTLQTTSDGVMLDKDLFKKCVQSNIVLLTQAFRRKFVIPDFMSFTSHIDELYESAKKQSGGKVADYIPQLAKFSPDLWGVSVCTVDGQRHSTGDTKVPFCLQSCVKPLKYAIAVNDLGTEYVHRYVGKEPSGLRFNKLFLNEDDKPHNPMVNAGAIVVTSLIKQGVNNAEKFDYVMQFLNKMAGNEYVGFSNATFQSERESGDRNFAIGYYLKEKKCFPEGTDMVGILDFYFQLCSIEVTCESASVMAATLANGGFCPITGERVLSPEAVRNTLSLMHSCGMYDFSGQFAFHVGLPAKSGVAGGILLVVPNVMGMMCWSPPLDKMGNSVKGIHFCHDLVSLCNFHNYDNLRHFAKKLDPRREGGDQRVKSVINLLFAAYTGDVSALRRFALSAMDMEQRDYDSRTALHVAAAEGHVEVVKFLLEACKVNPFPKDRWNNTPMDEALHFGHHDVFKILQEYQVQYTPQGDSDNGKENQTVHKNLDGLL", "assay": "qHTS for Inhibitors of Glutaminase (GLS)", "details": "GLS enzymatic activity, qHTS titration; series mostly up to 45.5 µM", "method_in_brief": "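Coupled fluorescence readout: glutamate oxidase/HRP/Amplex Red detect glutamate formed by hKGA from L-glutamine (1 mM solution added). Buffer 45 mM KH2PO4 pH 8.2, 0.02% Tween-20; reads at t0 and 30 min RT.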"}
{"smiles": "COc1cc(NC(=O)c2cc3c(=O)n(Cc4ccco4)ccc3nc2C)cc(OC)c1OC", "Potency": "inactive"}
{"smiles": "CC(=O)NC1=NN(C(C)=O)C(c2ccccc2)S1", "note": "(configuration not stated)", "Potency": "inconclusive [inhibitor, single point]"}
{"smiles": "C=CCNC(=O)c1ccccc1NC(=O)c1ccccc1N(C)S(C)(=O)=O", "Potency": "inactive"}
{"smiles": "CCSC1=NC(C)(C)C=C(C)N1", "Potency": "inactive"}
{"smiles": "O=C(CCC(=O)Nc1ccc(F)cc1)N/N=C/c1cc([N+](=O)[O-])ccc1O", "Potency": "inconclusive [inhibitor, partial curve, poor fit]"}
{"smiles": "O=C(COc1ccc([N+](=O)[O-])cc1)Nc1ccc2c(c1)nc1n2CCOC1", "Potency": "inconclusive [inhibitor, partial curve, poor fit]"}
{"smiles": "O=C(Nc1cccc(S(=O)(=O)N2CCCC2)c1)c1ccncc1", "Potency": "inactive"}
{"smiles": "C/C(=N\\NC(=O)c1cc(C)[nH]n1)c1cccs1", "Potency": "inactive"}
{"smiles": "CCOc1ccc(-c2nnc(SCC(=O)NCc3ccc(C)cc3)nc2-c2ccc(OCC)c(OC)c2)cc1OC", "Potency": "inconclusive [inhibitor, partial curve, poor fit]"}
{"smiles": "O=C(O)c1ccc(Cn2cc(Cl)cn2)cc1", "Potency": "inconclusive [inhibitor, single point]"}
{"smiles": "CCc1ccc(NC(=O)Cn2c(=O)c(CNc3ccccc3)cc3cc(OC)c(OC)cc32)cc1", "Potency": "active: 15.8 µM"}
{"smiles": "O=C(NC(=S)Nc1ccc2oc(=O)ccc2c1)c1ccco1", "Potency": "inconclusive [inhibitor, full curve, poor fit]"}
{"smiles": "Cc1ccc(CN(C)C(=O)c2cc(COc3ccc(F)cc3Cl)on2)o1", "Potency": "inconclusive [inhibitor, single point]"}
{"smiles": "O=C(NCCn1cc(SCc2ccc(C(F)(F)F)cc2)c2ccccc21)c1ccccc1F", "Potency": "inactive"}
{"smiles": "CC(=O)Nc1ccc(NC(=O)CNC(=O)c2cccc(C)c2)cc1", "Potency": "inconclusive [inhibitor, single point]"}
{"smiles": "CN1CCN(C(=O)C2CCCN(S(=O)(=O)c3ccc(Cl)cc3)C2)CC1", "note": "(configuration not stated)", "Potency": "inactive"}
{"smiles": "O=C(COC(=O)/C=C/c1ccccc1[N+](=O)[O-])NC1CC1", "Potency": "inconclusive [inhibitor, single point]"}
{"smiles": "COc1ccc(N/N=C(\\C#N)C(N)=O)cc1", "Potency": "inconclusive [inhibitor, single point]"}
{"smiles": "Cc1ccc(C2C=C(c3ccc(Cl)cc3)Nc3nc(NC(=O)CCC(=O)O)nn32)cc1", "note": "(configuration not stated)", "Potency": "inconclusive [inhibitor, single point]"}
{"smiles": "O=C(Nc1cccc([N+](=O)[O-])c1)N1CCN(c2ccccc2)CC1", "Potency": "inactive"}
{"smiles": "CN(C)Cc1cc(O)c(CN(C)C)cc1O", "Potency": "active: 14.1 µM"}
{"smiles": "COc1ccccc1Nc1nc(-c2c(C)nc3ncccn23)cs1", "Potency": "inconclusive [inhibitor, single point]"}
{"smiles": "CCSC1=C(C#N)C2(CCCC2)C(C#N)=C(N)N1", "Potency": "inconclusive [inhibitor, single point]"}
{"smiles": "O=c1[nH]c2ccccc2n2c(-c3ccccc3)nnc12", "Potency": "inconclusive [inhibitor, partial curve]"}
{"smiles": "O=C(CCc1c[nH]c2ccccc12)N1CCN(c2ccc(O)cc2)CC1", "Potency": "inconclusive [inhibitor, single point]"}
{"smiles": "CC(=O)c1ccc2c(c1)C1C=CCC1C(C(=O)O)N2", "note": "(configuration not stated)", "Potency": "active: 2.51 µM"}
{"smiles": "O=C(Nc1ccccc1Cl)C(Cl)C(=O)c1ccccc1", "note": "(configuration not stated)", "Potency": "inconclusive [inhibitor, single point]"}
{"smiles": "COc1ccc(-c2coc3cc(O)ccc3c2=O)cc1O", "Potency": "inactive"}
{"smiles": "CCOc1ccc(NC(=O)c2c(NCc3cccnc3)sc3c2CCCC3)cc1", "Potency": "inconclusive [inhibitor, partial curve, poor fit]"}
{"smiles": "CNC(=O)Nc1cc(C(C)(C)C)no1", "Potency": "inconclusive [inhibitor, single point]"}
{"smiles": "Cc1ccc(S(=O)(=O)Nc2ccccc2/C=N/c2nc3ccccc3n2C)cc1", "Potency": "inconclusive [inhibitor, partial curve]"}
{"smiles": "C[C@H]1O[C@H](O[C@H]2[C@H](O[C@@H]3CC[C@@]4(C)C(CC[C@]5(C)C4CC=C4[C@@H]6CC(C)(C)CC[C@]6(C(=O)O[C@@H]6O[C@H](CO)[C@@H](O)[C@H](O)[C@H]6O)CC[C@]45C)C3(C)C)O[C@H](C(=O)O)[C@@H](O)[C@@H]2O)[C@@H](O)[C@@H](O)[C@@H]1O", "note": "(some centres not stated)", "Potency": "inconclusive [inhibitor, single point]"}
{"smiles": "Cc1cc(S(=O)(=O)N2CCOCC2)ccc1OCC(=O)N1CCC(C)CC1", "Potency": "inconclusive [inhibitor, partial curve, poor fit]"}
{"smiles": "CC1(C)SC(=S)N(c2ccccc2)C1/[N+]([O-])=C/c1cccc([N+](=O)[O-])c1", "note": "(configuration not stated)", "Potency": "inconclusive [inhibitor, partial curve, poor fit]"}
{"smiles": "Cc1ccc(C)c(NC(=O)CS(=O)(=O)c2cccc3nsnc23)c1", "Potency": "inconclusive [inhibitor, single point]"}
{"smiles": "Cc1nn2c(=S)[nH]nc2[nH]c1=O", "Potency": "inconclusive [inhibitor, single point]"}
{"smiles": "COc1ccc(CCNC(=O)c2c([S-])n(-c3ccc(C)cc3)c3cccc[n+]23)cc1", "Potency": "inactive"}
{"smiles": "CCN1/C(=C/C=C/C=C/c2sc3ccccc3[n+]2CC)Sc2ccccc21", "Potency": "inconclusive [inhibitor, partial curve]"}
{"smiles": "COc1ccc(-n2c3c(cc(-c4nc(-c5ccc(C)cc5)cs4)c2=O)C(=O)CC(C)(C)C3)cc1", "Potency": "inactive"}
{"smiles": "Fc1ccc(Br)cc1SCCc1ccncc1", "Potency": "inconclusive [inhibitor, single point]"}
{"smiles": "Cc1ccc(/C=C/C(=O)NCCc2ccccc2)o1", "Potency": "inconclusive [inhibitor, partial curve]"}
{"smiles": "CCc1c(C)sc(NC(=O)c2ccoc2C)c1C(N)=O", "Potency": "inconclusive [inhibitor, single point]"}
{"smiles": "COC(=O)c1ccc(C(c2c(N)n(Cc3ccccc3)c(=O)n(C)c2=O)N2CCOCC2)cc1", "note": "(configuration not stated)", "Potency": "inconclusive [inhibitor, single point]"}
{"smiles": "COc1ccc2nc(N3C(=O)C(O)=C(C(=O)c4ccco4)C3c3ccccc3OC)sc2c1", "note": "(configuration not stated)", "Potency": "inconclusive [inhibitor, single point]"}
{"smiles": "CCCCn1c(N)c(-c2nc3ccccc3o2)c2c([N+](=O)[O-])nn(C)c(=O)c21", "Potency": "inconclusive [inhibitor, single point]"}
{"smiles": "O=C(OCc1cccc([N+](=O)[O-])c1)c1ccc[nH]c1=O", "Potency": "inactive"}
{"smiles": "Cc1ccc(NC(=O)c2ccc3nc[nH]c3c2)c(O)c1", "Potency": "inconclusive [inhibitor, full curve]"}
{"smiles": "CC(C)c1ccc(C(=O)CSc2n[nH]c(-c3ccncc3)n2)cc1", "Potency": "inconclusive [inhibitor, partial curve, poor fit]"}
{"smiles": "COc1cc(CNc2ccc(N3CCN(C(C)=O)CC3)cc2)ccc1OCc1ccccc1", "Potency": "active: 12.6 µM"}
{"smiles": "CC1=NN(c2ccc(C(=O)O)cc2)C(=O)/C1=C\\c1ccc(OC(=O)c2cccs2)cc1", "Potency": "inconclusive [inhibitor, single point]"}
{"smiles": "Clc1nssc1=Nc1nncs1", "Potency": "inconclusive [inhibitor, single point]"}
{"smiles": "O=c1c2ccccc2[nH]c2ccc(O)cc12", "Potency": "active: 5.01 µM"}
{"smiles": "CC(C)Oc1ccc(CC(=O)NNC(=S)Nc2ccc(Br)cc2)cc1", "Potency": "inconclusive [inhibitor, single point]"}
{"smiles": "O=S(=O)(c1ccc2c(c1)CCCN2)N1CCCC1", "Potency": "inactive"}
{"smiles": "COC(=O)c1ccc(COc2ccccc2/C=C/C(=O)c2ccc(OCC(=O)O)cc2)cc1", "Potency": "inconclusive [inhibitor, single point]"}
{"smiles": "S=C(NCCN1CCCCC1)Nc1ccc(Br)cc1", "Potency": "inconclusive [inhibitor, single point]"}
{"smiles": "CC(=O)NCc1ccc(S(=O)(=O)N/N=C/c2ccccc2)cc1", "Potency": "inactive"}
{"smiles": "C=CCNC(=S)NNc1nc(Nc2ccccc2)nc(N2CCCCC2)n1", "Potency": "inconclusive [inhibitor, single point]"}
{"smiles": "CN1c2ccccc2C(O)=C(C(=S)Nc2ccc(F)c(Cl)c2)S1(=O)=O", "Potency": "inconclusive [inhibitor, single point]"}
{"smiles": "CCCc1cc(N2CCN(c3cc(Cl)ccc3C)CC2)n2cnnc2n1", "Potency": "inactive"}
{"smiles": "COC(=O)c1c(NC(=O)c2cc3nc(-c4ccc(OC)cc4)cc(C(F)(F)F)n3n2)sc2c1CCCC2", "Potency": "inconclusive [inhibitor, single point]"}
{"smiles": "O=[N+]([O-])c1ccc(Cc2ccncc2)cc1", "Potency": "inconclusive [inhibitor, single point]"}
{"smiles": "CC(C)S(=O)(=O)C1=NSC2=NC(=O)/C(=C\\c3ccc(-c4cccc(C(=O)O)c4)o3)C(=N)N21", "Potency": "inactive"}
{"smiles": "COC(=O)c1ccc(-c2ccc(/C=N/NC(=O)CC3(C)OCCCO3)o2)cc1", "Potency": "inconclusive [inhibitor, single point]"}
{"smiles": "CN(c1ccccc1)S(=O)(=O)c1cc(Cl)ccc1Cl", "Potency": "inconclusive [inhibitor, partial curve, poor fit]"}
{"smiles": "O=C(NNS(=O)(=O)c1cccc(Cl)c1)c1cc(-c2ccc(F)cc2)nc2ccccc12", "Potency": "inconclusive [inhibitor, partial curve]"}
{"smiles": "O=S(=O)(Nc1ncccn1)c1ccccc1", "Potency": "inconclusive [inhibitor, single point]"}
